# Measurements as given in patent publication US20200325208A1 (IMMUNOWAKE, published 2020).
# T1: Human VEGF121/VEGF-A protein (human VEGF 121 isoform) with 6-His tag (human, UniProt P15692-9 27-147)
# T1 construct: range 27-147; Bought from Sino Biological; captured on the ELISA plate through an anti-His-tag antibody; not shown: 6-His tag
# T1 sequence (looked up): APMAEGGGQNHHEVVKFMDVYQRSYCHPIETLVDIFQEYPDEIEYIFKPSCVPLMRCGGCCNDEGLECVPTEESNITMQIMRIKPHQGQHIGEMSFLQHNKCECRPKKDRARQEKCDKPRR
# Columns and labels:
# Assay in all cases: ELISA, antigen captured by anti-His antibody on plate, HRP anti-IgG Fc detection
# [1] = target: T1, Human VEGF121/VEGF-A protein (human …)
# [2] = target: T2, Human IL-17A protein (human, UniProt Q16552 24-155)
# T2 construct: Purchased
# [3] = target: T3, Human PD-1 protein (human, UniProt Q15116 partial chain, limits assumed)
# T3 construct: Purchased
# [4] = target: T1, Human VEGF121/VEGF-A protein (human …); remark: listed apart in the source
# T2 sequence (Q16552 24-155 limits assumed): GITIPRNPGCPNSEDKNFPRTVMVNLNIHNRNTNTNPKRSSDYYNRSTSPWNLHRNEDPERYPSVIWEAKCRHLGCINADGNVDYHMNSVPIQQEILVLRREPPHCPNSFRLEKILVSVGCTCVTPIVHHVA
# T3 sequence (Q15116 25-167 limits assumed): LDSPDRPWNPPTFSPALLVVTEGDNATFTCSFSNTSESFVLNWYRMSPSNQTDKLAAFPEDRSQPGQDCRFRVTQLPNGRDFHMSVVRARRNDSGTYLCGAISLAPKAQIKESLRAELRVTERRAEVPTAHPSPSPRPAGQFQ
Binder,EC50 [1] [nM],EC50 [2] [nM],binding result [3],EC50 [4] [nM],binding result [2]
"IL-17A/LC-GS6-VEGFR-IgG4 (other, Ixekizumab IgG4 with Flt1d2-Flk1d3 fused to the C-terminus of the light chains through the GS6 linker; Expressed in CHO cells; also called IL17α/LC-GS6-VEGFR) heavy: QVQLVQSGAEVKKPGSSVKVSCKASGYSFTDYHIHWVRQAPGQGLEWMGVINPMYGTTDYNQRFKGRVTITADESTSTAYMELSSLRSEDTAVYYCARYDYFTGTGVYWGQGTLVTVSSASTKGPSVFPLAPCSRSTSESTAALGCLVKDYFPEPVTVSWNSGALTSGVHTFPAVLQSSGLYSLSSVVTVPSSSLGTKTYTCNVDHKPSNTKVDKRV[in this place human IgG4 Fc with S228P (EU numbers)] light: DIVMTQTPLSLSVTPGQPASISCRSSRSLVHSRGNTYLHWYLQKPGQSPQLLIYKVSNRFIGVPDRFSGSGSGTDFTLKISRVEAEDVGVYYCSQSTHLPFTFGQGTKLEIKRTVAAPSVFIFPPSDEQLKSGTASVVCLLNNFYPREAKVQWKVDNALQSGNSQESVTEQDSKDSTYSLSSTLTLSKADYEKHKVYACEVTHQGLSSPVTKSFNRGECTGGGGSGGGGSGGGGSGGGGSGGGGSGGGGSTGSDTGRPFVEMYSEIPEIIHMTEGRELVIPCRVTSPNITVTLKKFPLDTLIPDGKRIIWDSRKGFIISNATYKEIGLLTCEATVNGHLYKTNYLTHRQTNTIIDVVLSPSHGIELSVGEKLVLNCTARTELNVGIDFNWEYPSSKHQHKKLVLSPVNRDLKTQSGSEMKKFLSTLTIDGVTRSDQGLYTCAASSGLMTKKNSTFVRVHEK",19,2,no binding,,
"Ang2/LC-GS6-VEGFR-IgG1 (other, Nesvacumab IgG1 with Flt1d2-Flk1d3 fused to the C-terminus of the light chains through the GS6 linker; Expressed in CHO cells) heavy: EVQLVESGGGLVQPGGSLRLSCAASGFTFSSYDIHWVRQATGKGLEWVSAIGPAGDTYYPGSVKGRFTISRENAKNSLYLQMNSLRAGDTAVYYCARGLITFGGLIAPFDYWGQGTLVTVSS[in this place human IgG1 constant region] light: EIVLTQSPGTLSLSPGERATLSCRASQSVSSTYLAWYQQKPGQAPRLLIYGASSRATGIPDRFSGSGSGTDFTLTISRLEPEDFAVYYCQHYDNSQTFGQGTKVEIKRTVAAPSVFIFPPSDEQLKSGTASVVCLLNNFYPREAKVQWKVDNALQSGNSQESVTEQDSKDSTYSLSSTLTLSKADYEKHKVYACEVTHQGLSSPVTKSFNRGECTGGGGSGGGGSGGGGSGGGGSGGGGSGGGGSTGSDTGRPFVEMYSEIPEIIHMTEGRELVIPCRVTSPNITVTLKKFPLDTLIPDGKRIIWDSRKGFIISNATYKEIGLLTCEATVNGHLYKTNYLTHRQTNTIIDVVLSPSHGIELSVGEKLVLNCTARTELNVGIDFNWEYPSSKHQHKKLVLSPVNRDLKTQSGSEMKKFLSTLTIDGVTRSDQGLYTCAASSGLMTKKNSTFVRVHEK",,,,13,
"mPD-1/LC-GS6-VEGFR-IgG4 (other, Pembrolizumab IgG4 with Flt1d2-Flk1d3 fused to the C-terminus of the light chains through the GS6 linker; Expressed in CHO cells) heavy: QVQLVQSGVEVKKPGASVKVSCKASGYTFTNYYMYWVRQAPGQGLEWMGGINPSNGGTNFNEKFKNRVTLTTDSSTTTAYMELKSLQFDDTAVYYCARRDYRFDMGFDYWGQGTTVTVSSASTKGPSVFPLAPCSRSTSESTAALGCLVKDYFPEPVTVSWNSGALTSGVHTFPAVLQSSGLYSLSSVVTVPSSSLGTKTYTCNVDHKPSNTKVDKRV[in this place human IgG4 Fc with S228P P343R (EU numbers)] light: EIVLTQSPATLSLSPGERATLSCRASKGVSTSGYSYLHWYQQKPGQAPRLLIYLASYLESGVPARFSGSGSGTDFTLTISSLEPEDFAVYYCQHSRDLPLTFGGGTKVEIKRTVAAPSVFIFPPSDEQLKSGTASVVCLLNNFYPREAKVQWKVDNALQSGNSQESVTEQDSKDSTYSLSSTLTLSKADYEKHKVYACEVTHQGLSSPVTKSFNRGECTGGGGSGGGGSGGGGSGGGGSGGGGSGGGGSTGSDTGRPFVEMYSEIPEIIHMTEGRELVIPCRVTSPNITVTLKKFPLDTLIPDGKRIIWDSRKGFIISNATYKEIGLLTCEATVNGHLYKTNYLTHRQTNTIIDVVLSPSHGIELSVGEKLVLNCTARTELNVGIDFNWEYPSSKHQHKKLVLSPVNRDLKTQSGSEMKKFLSTLTIDGVTRSDQGLYTCAASSGLMTKKNSTFVRVHEK",26,,,,no binding

# Like-named read-outs stand apart in the source and are kept apart here.
